Results on 110 sequences are retold here after the supplement of paper PMC3334620.

Over roughly 33,000 sequences, “E-score (-0.5 to 0.5)” has its median near -0.035; the highest 2% begin near 0.34. Some of the results follow.

The target of the test is T1, Mot3 (UniProt P54785).
T1 sequence: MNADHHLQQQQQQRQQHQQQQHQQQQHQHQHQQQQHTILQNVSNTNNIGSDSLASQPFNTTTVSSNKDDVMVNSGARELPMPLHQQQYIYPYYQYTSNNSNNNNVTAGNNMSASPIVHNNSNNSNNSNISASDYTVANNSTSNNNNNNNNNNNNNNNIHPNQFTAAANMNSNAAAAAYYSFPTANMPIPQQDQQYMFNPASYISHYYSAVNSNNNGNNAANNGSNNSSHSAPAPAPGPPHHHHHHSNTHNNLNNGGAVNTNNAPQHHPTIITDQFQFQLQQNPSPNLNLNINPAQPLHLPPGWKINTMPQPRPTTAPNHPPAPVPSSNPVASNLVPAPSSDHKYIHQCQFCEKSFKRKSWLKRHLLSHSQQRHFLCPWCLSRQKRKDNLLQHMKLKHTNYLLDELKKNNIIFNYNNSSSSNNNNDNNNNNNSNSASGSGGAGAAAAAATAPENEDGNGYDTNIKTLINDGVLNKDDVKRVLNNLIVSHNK
The test is described as follows: PBM E-score (8-mer binding enrichment) (E-score (-0.5 to 0.5)); higher = stronger / more preferred TF binding; most listed sequences are background and not binding sites. The settings on record: protein concentration: 200 nM; construct: GST-full length. Summed up: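 Detection of bound protein used fluorescent anti-GST, with scans normalised by masliner. The proteins were GST-tagged yeast transcription factors applied at about 100-200 nM to universal all-10-mer Agilent arrays made double-stranded by primer extension. Each ungapped eight-base word, pooled with its reverse complement, was scored with an E-score from the Universal PBM Analysis Suite.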
As for AATGGGGT, the “PBM E-score” value turned out to be 0.00375. As to CTGGAGCC, the “PBM E-score” value was -0.0386. As for ACCCCGGT, the “PBM E-score” value was -0.238.

For CCTACAGA, the “PBM E-score” value was -0.0773. Regarding ATCCTAGG, the “PBM E-score” value is -0.0611. In the case of AGCCGAAG it was -0.15.

Turning to GAGCGTAC, the “PBM E-score” value was -0.132. Turning to AGCGATTA, the “PBM E-score” value is -0.0748. In the case of ATTGCCAC it was -0.0828. For the sequence GAACGTTC, the “PBM E-score” value came out at 0.0123. Regarding CTGAAAAG, the “PBM E-score” value was found to be 0.0248. ATCCATGA: the “PBM E-score” value was -0.196. For the sequence CAGGACCA, the “PBM E-score” value is -0.2. Under CCGTGGCC stands -0.31. In the case of CCTTGCAC it was 0.00446; in that of CTGAGCAA, 0.11; in that of AAGACGGT, -0.302. Turning to CCGGTGGC, the “PBM E-score” value is -0.431. For the sequence ACCTTATC, the “PBM E-score” value turned out to be 0.146. Take GCCTTCTA: the “PBM E-score” value was 0.197. As for AGCCTCAA, the “PBM E-score” value is -0.265. Regarding GTTTTTGA, the “PBM E-score” value was determined as 0.0827. Regarding ATGTACTC, the “PBM E-score” value was 0.189. In the case of ACGGCATC, the “PBM E-score” value amounted to 0.00294. With ACCCAATG, the “PBM E-score” value is -0.122.

For AACTTCGT, the “PBM E-score” value was -0.00486. Turning to CCCACCCG, the “PBM E-score” value was -0.171.

For the sequence GTTGTGCA, the “PBM E-score” value is 0.046. Turning to TCAGCTCA, the “PBM E-score” value was -0.138. As to AAAGTCTG, the “PBM E-score” value was -0.0774. Turning to CTCCGGTA, the “PBM E-score” value amounted to 0.0872.

As for CTGTTCAC, the “PBM E-score” value is -0.00516. Take CATCAATG: the “PBM E-score” value was -0.104. Regarding CACTGACA, the “PBM E-score” value was 0.177. As to AAGGAATC, the “PBM E-score” value turned out to be 0.0777.

For the sequence GTTAGCGA, the “PBM E-score” value worked out at 0.0329. In the case of ACACCTGA, the “PBM E-score” value worked out at 0.21. Consider ACAGGCAG, for which the “PBM E-score” value worked out at 0.239. For the sequence CTCCGCTC, the “PBM E-score” value was -0.0469.

As to ACACGGCA, the “PBM E-score” value worked out at 0.25.

On to ATGCTTCC, for which the “PBM E-score” value was -0.188. Turning to ATTACCCG, the “PBM E-score” value was -0.0107.

In the case of AGTGAGGA, the “PBM E-score” value was -0.204. For the sequence AAAAGCCC, the “PBM E-score” value was -0.259. Turning to AAAGCTTG, the “PBM E-score” value is 0.151. GGGTTCTA: the “PBM E-score” value is -0.176. CCTTACCC: the “PBM E-score” value was -0.144. As for GCGCAGGA, the “PBM E-score” value is -0.0722. CATACGAG: the “PBM E-score” value came to 0.0424. Under AATACCCT stands -0.0878; under CTTCTATA, 0.157. As to GCTTTGCC, the “PBM E-score” value was 0.0869. As to AGCGGCGA, the “PBM E-score” value was -0.228.

In the case of AGTCAATA, the “PBM E-score” value was -0.0409. In the case of AAATTCTA, the “PBM E-score” value was 0.113. As to ACGGATCA, the “PBM E-score” value came to 0.0935. As to CCGGTATA, the “PBM E-score” value is -0.0946.

In the case of GCTTCCAA, the “PBM E-score” value was -0.0912. Take AAGGTTGT: the “PBM E-score” value came out at 0.115.

For the sequence CCCGCACA, the “PBM E-score” value was -0.144. Take GCAAAGTA: the “PBM E-score” value stood at 0.126. Under TCCCCACA stands -0.274. Regarding AACCTGGG, the “PBM E-score” value is 0.0477. As to TTAACTAA, the “PBM E-score” value is 0.212. Consider GTTTCCAA, for which the “PBM E-score” value is -0.12. With ATGCGCAG, the “PBM E-score” value is -0.301.

With ATAGGATA, the “PBM E-score” value came out at 0.00177. For AGTCCCTA, the “PBM E-score” value was -0.287. Under GGGTCAAA stands -0.0462; under GACTAAAA, -0.165.

As to AACTTACC, the “PBM E-score” value was -0.0117. In the case of ACGTATAG it was 0.0753; in that of CTAACAAC, 0.19; in that of CGAATATA, 0.0883.

Regarding CGATCAGA, the “PBM E-score” value is -0.15. With AGTACTTG, the “PBM E-score” value amounted to 0.174. On to TAATTGGA, for which the “PBM E-score” value came out at 0.103. In the case of AAGTGATA it was -0.0472; in that of AAGTTTCG, -0.0327; in that of ACCTCAAT, 0.0421. Turning to TAAAATCA, the “PBM E-score” value was 0.135. In the case of CGACCGCC it was -0.228.

For the sequence CGGGCACA, the “PBM E-score” value was 0.0796. For the sequence GCCGATAA, the “PBM E-score” value is -0.144. Take CTCCAGGA: the “PBM E-score” value stood at 0.0168. For CACGGAGA, the “PBM E-score” value was -0.201. In the case of AACATGTT it was 0.387; in that of GGAGCAAA, -0.0479. In the case of ACGGCGGG it was -0.205. With CGGGGCGC, the “PBM E-score” value was -0.33. For CCAAACCC, the “PBM E-score” value was -0.198. For the sequence AACAGGCC, the “PBM E-score” value was found to be 0.234. In the case of ATGTAATG it was 0.395; in that of TTCAGAAA, 0.088; in that of CAAGCCTC, -0.0949. Consider CGCTCTAC, for which the “PBM E-score” value was 0.105. As for TATTGGAA, the “PBM E-score” value is -0.00815. Regarding ACTTTACA, the “PBM E-score” value amounted to 0.313.

Turning to AGGCTCGG, the “PBM E-score” value was 0.146. For the sequence ATTGCCGG, the “PBM E-score” value is -0.186. As for CAGCGCAC, the “PBM E-score” value was -0.224. For the sequence CCCGACTA, the “PBM E-score” value was -0.0141. Under CGGATAAA stands 0.066. Under GCAGGGGC stands 0.0422; under GTCTGATA, 0.0245.

AGAAACCG: the “PBM E-score” value is -0.0436. Under CCTGCTCG stands 0.0299; under CTCGACGA, -0.346. CTCAGGGA: the “PBM E-score” value was -0.251. For GCCAATCC, the “PBM E-score” value was -0.281.
